Measurements: PubChem BioAssay AID686979 (National Center for Advancing Translational Sciences (NCATS), 2013)
About 50,000 (12%) of roughly 420,000 compounds were called active. Inconclusive results, whose numbers are uncertain, are shown with a selection of clear calls. Calls come from the whole dose curve; as a rule, active = well fitted inhibition curve with a large enough effect; inconclusive = small, poorly fitted or top-dose-only effect; inactive = flat fitted curve, though single readings scatter. Potencies of inconclusive entries are left out as doubtful fits.

Assay: qHTS for Inhibitors of human tyrosyl-DNA phosphodiesterase 1 (TDP1): qHTS in cells in presence of CPT; note: nearly all actives have a fitted effect of over 55% in size
Settings: chicken DT40 Tdp1-/-;hTDP1 cells + 20 nM CPT, ATP luminescence, 48 h; activity change, negative = growth inhibition: at 46.2 µM (top of the series)
Procedure, shortened: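 Chicken DT40 Tdp1-/- cells stably complemented with human TDP1 were seeded at 400 cells/well in medium containing 20 nM camptothecin, exposed to pin-transferred compounds, and grown at 37 °C for at least 48 hr. Viability was read as ATP luminescence.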
% is set by controls: 0 for no effect and ±100 for the full control effect; potency is the fitted concentration of half-maximal effect; tags give direction and shape of the fitted curve.

| SMILES | Potency | activity change, negative = growth inhibition |
| --- | --- | --- |
| O=CNc1ccc2c(c1)Cc1cc([N+](=O)[O-])ccc1-2 | inconclusive [inhibitor, partial curve] |  |
| O=c1[nH]c(C2CCN(S(=O)(=O)c3ccccc3C(F)(F)F)CC2)nc2c1nnn2Cc1cccc(F)c1 | inconclusive [inhibitor, single point] |  |
| O=C(NCCCN1CCN(c2ccccc2F)CC1)c1ccc2nc(CCc3ccccc3)oc2c1 | active: 20.6 µM |  |
| CC(C)(C)c1ccc(C2(C)NC(=O)N(CC(=O)NC3CCS(=O)(=O)C3)C2=O)cc1 (configuration not stated) | inactive |  |
| Cc1csc(NC(=O)CN2CCCCCC2)n1 | inconclusive [inhibitor, partial curve] |  |
| CSCCC(NC(=O)c1ccc(C(C)(C)C)cc1)C(=O)O (configuration not stated) | inactive |  |
| COc1ccc(NS(=O)(=O)c2ccc(N3CCN(CCO)CC3)c([N+](=O)[O-])c2)cc1 | active: 9.2 µM |  |
| CC(=O)c1cccc(NC(=O)c2sc(Cl)nc2C)c1 | inactive |  |
| Cc1ccc(-c2nn(CC(=O)NCc3cc(-c4nn(C)c(=O)c5ccccc45)ccc3C)c(=O)c3ccccc23)cc1 | active: 14.6 µM |  |
| Cc1ccc(S(=O)(=O)N2CCC(=O)N(C(COCc3ccc(Cl)c(Cl)c3)Cc3ccccc3)CC2)cc1 (configuration not stated) | inconclusive [inhibitor, single point] |  |
| FC(F)(F)c1ccccc1Cc1c(C2CCCCC2)nc2ccc(Cl)cn12 | inconclusive [inhibitor, single point] |  |
| COc1cccc(NC(=O)Cn2c(=O)n(Cc3ccc(F)cc3)c(=O)c3sc4ccccc4c32)c1 | inconclusive [inhibitor, partial curve] |  |
| Cn1c(=O)c2[nH]c(N=NNc3ccccc3F)nc2n(C)c1=O | inactive |  |
| O=C(OCc1cc(=O)n2c(n1)sc1ccccc12)c1ccc(O)cc1O | inconclusive [inhibitor, single point] |  |
| CCOc1ccc(S(=O)(=O)N(CC(=O)NC2CCCC2)c2ccc(F)cc2)cc1 | inconclusive [inhibitor, single point] |  |
| CCC(COC)NC(=O)c1cnn(-c2ncc3c(n2)-c2ccccc2CCC3)c1C (configuration not stated) | inactive |  |
| COc1ccc(-c2cc(-c3nc(-c4cc(OC)c(OC)c(OC)c4)no3)[nH]n2)c(OC)c1 | active: 20.6 µM |  |
| CC(=O)NCCNC(=O)CCCc1nnc2n(CC(C)C)c(=O)c3sccc3n12 | inactive |  |
| O=S(=O)(Nc1ccc2ccccc2c1)c1ccccc1 |  | inconclusive: -31.9% [inhibitor] |
| CC(=O)C1=C(O)C(=O)N(c2ccc(Br)cn2)C1c1ccc(F)cc1 (configuration not stated) | inactive |  |
| Brc1ccccc1-c1csnn1 | inactive |  |
| CCc1nnc2c3ccccc3nc(Nc3cc(C)cc(C)c3)n12 | active: 6.51 µM |  |
| O=C(COc1ccccc1Cl)NNC(=O)Cn1[nH]c(=O)c2ccccc2c1=O | active: 9.2 µM |  |
| CN(C)CCCNc1ccc(-c2n[nH]c(=O)c3ccccc23)cc1[N+](=O)[O-] | active: 10.3 µM |  |

| SMILES | Potency | activity change, negative = growth inhibition |
| --- | --- | --- |
| CCCN(CC(=O)NC(=O)NCc1ccccc1)CC(=O)Nc1ccc(F)c(F)c1F | inconclusive [inhibitor, single point] |  |
| COc1cccc(CCN2CCC(CNS(=O)(=O)c3cc(-c4cc(C)no4)ccc3OC)CC2)c1 |  | inconclusive: -30.9% [inhibitor] |
| CC(=O)N1CCc2c(sc3c2c(=O)n(-c2ccccc2)c(=O)n3CC(=O)Nc2cc(C)cc(C)c2)C1 | inconclusive [inhibitor, single point] |  |
| CCCCN(CCCC)C1=Nc2ccccc2N/C1=C(/C#N)C(=O)OCC | active: 20.6 µM |  |
| COc1cccc(CNC(=O)CC2C(=O)NCCN2CCCc2ccccc2)c1 (configuration not stated) | inconclusive [inhibitor, single point] |  |
| CCOc1ccc(CCNC(=O)c2c(C)oc3ncn(CC(C)C)c(=O)c23)cc1OCC | inactive |  |
| COc1cc(CNCc2cccs2)ccc1OCc1cccs1 | inactive |  |
| Cc1ccccc1C(=O)N1CCN(c2ccc(NC(=S)NC(=O)c3cccs3)cc2)CC1 | active: 23.1 µM |  |
| CC1C(C#N)=C(N)OC2=C1C(=O)CCC2 (configuration not stated) | inactive |  |
| O=C(OCc1ccccc1)N1CCC2CC1c1ccc(N3CCNCC3)cc12 (configuration not stated) | active: 9.2 µM |  |
| CCn1c(-c2ccc(C)cc2)n[nH]c1=S | active: 20.6 µM |  |
| CC1(Oc2cccc(C#N)c2)CCN(Cc2csc3ccccc23)C1 (configuration not stated) | inconclusive [inhibitor, single point] |  |
| CC(=O)Nc1ccc(S(=O)(=O)N(C)c2ccc(OCCOc3ccccc3F)cc2)cc1 | inconclusive [inhibitor, full curve, poor fit] |  |
| Cc1cccc(NS(=O)(=O)c2ccc(C)c(C(=O)NCC(c3ccccc3)N(C)C)c2)c1 (configuration not stated) | inconclusive [inhibitor, single point] |  |
| Cc1ccc(-c2cc(C(=O)N3CCN(C(=O)c4ccco4)CC3)[nH]n2)c(C)c1 | inactive |  |
| COCCSc1nnc(NC(=O)c2cc(OC)c(OC)cc2[N+](=O)[O-])s1 | inactive |  |
| O=C1NC(Cc2ccccc2)c2nc3ccc(F)cc3c(=O)n2-c2cc3ccccc3cc21 (configuration not stated) | active: 5.17 µM |  |
| O=C(NCCc1ccc(Cl)cc1)C1CCCN(c2ncnc3c2nc2n3CCCCC2)C1 (configuration not stated) | inconclusive [inhibitor, single point] |  |
| Clc1ccccc1CSc1nnc(-c2ccccn2)n1Cc1ccco1 | inconclusive [inhibitor, partial curve] |  |
| COc1ccc(NC(=O)c2sc3nc(C)nc(N4CCN(c5ccccn5)CC4)c3c2C)cc1Cl | inconclusive [inhibitor, single point] |  |
| Nc1ccc(N2CCN(C(=O)c3cccs3)CC2)cc1 | inconclusive [inhibitor, single point] |  |
| O=C(C1CCC(Cn2c(=S)[nH]c3ccccc3c2=O)CC1)N1CCN(c2ccccc2)CC1 (configuration not stated) | inconclusive [inhibitor, single point] |  |
| CCc1ccc(NC(=O)CSc2nc(C)c(C(=O)Nc3ccccc3)c(-c3ccc(OC)c(OC)c3)c2C#N)cc1 | inactive |  |
